# Source: the supplement of paper PMC3334620
# Over roughly 33,000 sequences, “E-score (-0.5 to 0.5)” has its median near -0.011; the highest 2% begin near 0.28. The list shows a part of the results.
# Target: T1, Gcr1 (UniProt P07261)
# T1 sequence: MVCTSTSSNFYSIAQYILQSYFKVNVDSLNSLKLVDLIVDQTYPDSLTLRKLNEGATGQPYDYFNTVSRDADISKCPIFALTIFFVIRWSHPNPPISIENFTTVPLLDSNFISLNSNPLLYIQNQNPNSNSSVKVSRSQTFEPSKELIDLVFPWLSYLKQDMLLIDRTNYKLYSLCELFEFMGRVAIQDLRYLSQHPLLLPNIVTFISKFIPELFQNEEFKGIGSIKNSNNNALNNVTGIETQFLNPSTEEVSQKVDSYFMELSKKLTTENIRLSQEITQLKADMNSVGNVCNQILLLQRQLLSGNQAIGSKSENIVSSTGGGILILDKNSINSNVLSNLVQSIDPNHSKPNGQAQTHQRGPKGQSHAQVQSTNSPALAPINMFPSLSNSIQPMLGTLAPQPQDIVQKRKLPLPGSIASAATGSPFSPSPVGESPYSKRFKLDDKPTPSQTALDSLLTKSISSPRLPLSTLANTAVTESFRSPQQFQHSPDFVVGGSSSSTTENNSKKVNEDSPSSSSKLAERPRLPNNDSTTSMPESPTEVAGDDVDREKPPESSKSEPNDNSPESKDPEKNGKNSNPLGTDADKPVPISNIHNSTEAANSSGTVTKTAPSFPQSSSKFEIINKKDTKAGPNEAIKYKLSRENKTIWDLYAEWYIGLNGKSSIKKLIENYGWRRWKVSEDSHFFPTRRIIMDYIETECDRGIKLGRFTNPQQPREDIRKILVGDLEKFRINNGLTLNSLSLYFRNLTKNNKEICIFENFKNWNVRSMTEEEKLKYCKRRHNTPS
# Experiment: PBM E-score (8-mer binding enrichment) (E-score (-0.5 to 0.5)); higher = stronger / more preferred TF binding; most listed sequences are background and not binding sites
# Conditions: protein concentration: 100 nM; construct: GST-full length
# In short: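 Detection of bound protein used fluorescent anti-GST, with scans normalised by masliner. The proteins were GST-tagged yeast transcription factors applied at about 100-200 nM to universal all-10-mer Agilent arrays made double-stranded by primer extension. Each ungapped eight-base word, pooled with its reverse complement, was scored with an E-score from the Universal PBM Analysis Suite.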
row,Sequence,PBM E-score
1,GCCGAGCC,-0.0686
2,ACACTCGA,-0.116
3,CGTGCTGC,-0.0514
4,GTTAGTTA,0.0818
5,AATAGATG,0.237
6,GTACTTTA,0.107
7,CCCAGCCG,-0.0788
8,AACTGATA,0.0463
9,CTGCAACC,0.0546
10,CTCTCCGC,0.0746
11,CATTTGAA,0.104
12,CACTGTCC,-0.0748
13,ACTAACAC,-0.116
14,AGTTAAGC,0.163
15,AACGCATC,0.0976
16,CTAATGAA,0.16
17,AAAGATAG,0.00998
18,AAGTCTCA,-0.0755
19,CTTGGAGA,0.101
20,CCTAATCG,0.0174
21,CTTTTGAA,0.1
22,CGCGAAAA,0.0876
23,CGGTGCTC,0.185
24,CACTCACG,-0.0374
25,ACATACTG,0.0904

row,Sequence,PBM E-score
1,CAGGCCCG,-0.263
2,AACGGAAA,0.0776
3,ATAATACG,0.0642
4,CGGCGCTC,0.136
5,TCGCGTAA,0.16
6,AGAAATCG,-0.0525
7,GACTCATA,-0.142
8,CTGATACC,0.168
9,GTCCAGCA,-0.0714
10,AGTCTCGA,-0.114
11,CTTCTCCC,-0.0881
12,CAGTGTAA,-0.102
13,GACAAAGA,-0.0165
14,GGCACAAA,0.0185
15,CACGAGCG,-0.173
16,GGACCCAC,0.201
17,AGACCATC,-0.17
18,GAGGATGA,-0.0555
19,CAGGTCTA,-0.117
20,CCGGTCTA,-0.276
21,AACCATTA,0.0636
22,AGGAGCTC,-0.0587
23,AGCTCCGG,0.117
24,CTACGACC,-0.152
25,CACTCCTC,0.0608

row,Sequence,PBM E-score
1,ATACACCG,-0.0484
2,ATATTATA,0.138
3,ACGGAAGA,0.0748
4,CTAGACCA,-0.051
5,CTGGTCAA,0.0775
6,CCGTACCG,-0.258
7,ATTTAGAA,0.19
8,AAGCGGCC,0.123
9,CGGCCTGA,0.00578
10,ACTTCGGA,0.102
11,AGAAAGCG,-0.0791
12,CCCTATGC,-0.136
13,CCTAAGGA,0.0409
14,AGGCGACT,-0.0624
15,AAGAGTAA,-0.0445
16,ACTTACAA,0.126
17,AACCGTAT,-0.0776
18,ATTCCTCG,-0.0652
19,CAACACCG,-0.111
20,CTATAGTC,-0.176
21,ATGGGTAA,0.062
22,GTGGCAAC,0.235
23,CTTACTCC,-0.226
24,ACTCCCCA,0.0542
25,CGTAATCA,-0.151

row,Sequence,PBM E-score
1,AGTGTCTA,-0.153
2,CCGCCCCA,0.154
3,CTCCGCCC,-0.196
4,CCTTCGTC,-0.0715
5,GCAGAGTA,-0.0213
6,GAGTATTA,-0.0678
7,AATAGCGG,0.143
8,AGCGTAGC,-0.0409
9,GAGATTGC,-0.261
10,AAGCTGAC,0.0829
11,CCGGCATC,0.38
12,CCTGTGAC,-0.0507
13,ATTGAAGG,-0.188
14,CAAACGGC,-0.0434
15,CCCTCTAC,-0.191
16,AATGATTC,-0.139
17,AGCCCGCA,0.225
18,ACCTGAGA,-0.038
19,CCGAACCA,-0.0651
20,TCGGAGCA,-0.322
21,AAATGCCG,0.0711
22,AAAAGGAC,0.0425
23,AACCACTG,0.0775
24,GAGCCCGA,0.0537
25,ACCGCAGT,-0.0982

row,Sequence,PBM E-score
1,ACCGACCC,-0.177
2,AAATTTGA,-0.0347
3,CTTACAAG,-0.0531
4,GTACTGAC,-0.0166
5,ACATACCT,-0.21
6,GCGATTCC,0.0997
7,AACTACGG,-0.0925
8,CGATCTTC,-0.0371
9,CAGCCCAG,-0.143
10,AGGAGGTC,-0.113
11,AACGCTCT,-0.107
12,CCCCGTTA,-0.0362
13,TATAGGGA,-0.00691
14,CGGATCCG,0.212
15,GGCCCTAA,0.128
16,AGATGGTC,-0.0165
17,CAGAGTCA,-0.0175
18,TATTCCCA,-0.0395
19,GAGACTAA,-0.0955
20,CTAGTCAG,0.141
21,GCCGCGGA,0.045
22,GCGGGTCA,-0.0549
23,AGCCGTTA,0.0667
24,CGGGCAGC,0.309
25,CACCCGCG,-0.119

row,Sequence,PBM E-score
1,CAAAAGAG,0.0266
2,AATCGGCA,0.0526
3,ACTTTCGA,-0.0806
4,GCGTACGC,-0.0345
5,AAAAGTTA,0.165
6,GGCAGTGA,-0.113
7,CACCGGCC,-0.0639
8,GGGCAGAC,-0.167
9,CTCACTGA,-0.0627
10,ATATTTGG,0.206
11,GACTACGC,-0.0868
12,ACTATCCG,-0.0823
13,CTCCGGAA,0.225
14,AATTCAAC,0.0448
15,CGATGGAC,-0.0892
16,AAAGGTAA,0.063
17,ATAACAAG,0.0537
18,TCTTTCCA,0.128
19,CCAGCCCG,-0.137
20,CCTACAGG,-0.0829
21,CACTAAAA,0.219
22,CGTTAAAC,0.0113
23,CCCTTAGC,-0.0669
24,AGGGAAAC,0.101
25,ATGGAACA,-0.0319

row,Sequence,PBM E-score
1,AGAGGTAA,-0.196
2,GATCCGAA,0.116
3,TATGATCA,0.0371
4,AATCCCGT,0.169
5,TCGTAACA,0.0684
6,GATGTAAA,-0.00476
7,GGCCGCAC,-0.162
8,AGGATCTA,0.0568
9,GGAAAAGA,-0.0294
10,ATTACGGA,0.0799
11,AAAACGTG,-0.0965
12,AAGATCGG,0.0628
13,GCGGTAAC,-0.12
14,ACTCAGGA,0.228
15,GCCGCGCA,-0.0483
16,AGAATGGG,0.119
17,AAACGGTC,-0.0468
18,CCTATGGC,-0.105
19,AACGAAGA,0.211
20,CTCCTTGC,-0.169
21,GGCCGAAA,-0.0486
22,CAATGCGG,-0.031
